The other results are listed elsewhere or left out.
The sequences below were run on PfSIP2 AP2 domain 1 (GST-tagged) (assay: gcPBM binding intensity (ln(normalized median fluorescence intensity)); higher = stronger DNA binding).
How it was run: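 An Agilent 4 × 180k array carrying primer-extended double-stranded 36-bp intergenic genomic probes and negative controls received GST-tagged P. falciparum DNA-binding domains expressed in E. coli, about 25 μg on average, for 1 h. The binding buffer contained 1× PBS, 1% milk, 0.2 mg/ml BSA, 0.5% salmon testes DNA and 0.03% Triton X-100. Binding intensity is the top Masliner-normalised natural-log median intensity across replicate spots of either probe orientation, read after Alexa488 anti-GST antibody staining and a 488 nm scan.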

Sequence | gcPBM binding intensity (ln)
GGTGGCTAAATTACAACACACGACGGAATATTATAT [CACACA_site4114] | 6.91
ACCGTGGGAAGACACACACACACACCCACATATATA [CACACA_site333] | 7.02
AGTATATAATAATTTACACACAAAAAAATATCAGGA [CACACA_site3517] | 7.22
TGATTTATCTATATTTTATAAGTTATTTATTTTTTT [CACACA_negctrl_site1603] | 6.68
TTTTATTCATTGAGCACACAAAATAAATTATCAAAA [CACACA_site3279] | 7.03
TTTGTAACTTCTTTCACACATATATATATATATATA [CACACA_site5603] | 9.76
GTGTGCAAAAATTGTTGTACATTATATATAAAAAAA [XGTACX_site3246] | 7.79
CTATTATCGGTTCCTACACACAAATATAGATGTCTA [CACACA_site7651] | 7.28
TATATAATACAAAAGGGTACATTAACATATTATATA [XGTACX_site3196] | 6.93
TATTTGCAATATAACACACACAAAAAAAGACTCGGA [CACACA_site6891] | 7
CATATATATATATATTGTACACATTTTTTATAAAAA [XGTACX_site2526] | 7.54
AATTATACATTATATTGTACATATGAATAATTAAAA [XGTACX_site6829] | 6.99
TATATGTAATATATATGTACGTATAATATAATATTG [XGTACX_site8620] | 6.98
AGTGATAATTTAAAAAGTACAAATGAAATTTAGCTA [XGTACX_site3375] | 6.83
TATATATAAAGCAGTACACACATTTATTTTAGATAC [CACACA_site3387] | 7.08
AGAGAGAAAGCTATAACATGCAAAAATTTTTAGAAC [TGCATGCA_site420] | 7
ATACAAATAAAAAAAAAAATTATAAAATTATAAAAT [CACACA_negctrl_site914] | 6.81
GGATTGATAAGTGGTACACACATATATATTATATAT [CACACA_site2866] | 7.19
GCATTGGGAATATATAGTACATATATATATATATAA [XGTACX_site2967] | 7.39

Sequence | gcPBM binding intensity (ln)
AAATATAAAAATAGCACACATATATACCTATATATA [CACACA_site4204] | 6.94
TTTTTCTTTTTCTTTTTTTCTTTTTTTTTTTTTTTC [GTGCAC_negctrl_site727] | 6.79
CAGACGCACGTATTTGCACACATTGCCACGTAATTA [CACACA_site3349] | 7.07
AACCATTCAACTGATGCATGCATTTAACATATAAAT [TGCATGCA_site961] | 7.14
AAAAAAATTGGGAAAAGTACTTGCAGCTAGCTAAAA [XGTACX_site5178] | 6.58
TTAAAAAAAATTTCAAGTACAAAGTAATATATATAT [XGTACX_site5718] | 8.43
AAACAAATATAATATTGTACATATATATATATATAT [XGTACX_site3105] | 9.52
ATATATATATAATTTTGTACATAATAGCAATTCTAA [XGTACX_site653] | 8.45
GGATGGAGTAGTTAAGCATAATAAATAAAATTATGT [CACACA_negctrl_site578] | 6.96
GTTTTAAACAAAAATTGTACAATATAATCTTCCTAT [XGTACX_site2851] | 6.79
CAAAACCTTTTATGTACACACATATACATCCCACTT [CACACA_site5716] | 7.06
AACAACTATTAATTTACACACATGTATATATTTTAC [CACACA_site3116] | 7.09
AATAGCTAGCTGTGCACACAAACATATTTTCCAAAT [CACACA_site880] | 8.77
CCACAAGCAGCGGAAACATGCATATGTTGAAATAAT [TGCATGCA_site610] | 6.68
TCATTTCACAAACACACACACACAATATATTTCCTT [CACACA_site3905] | 7.28
AACAAAAAAAAAAAATGTACATATATATAATATATT [XGTACX_site3829] | 6.87
GTTAAGAATATGTGTACACATATACATAAATACATA [CACACA_site4254] | 7.71
TAATAATATTATTAATGTACAAATATATATACATAT [XGTACX_site7348] | 6.96
TATATATATATATATTGTACCCTTTTCAAACTTCTC [XGTACX_site2812] | 9.01

Sequence | gcPBM binding intensity (ln)
AATATCATCCTTTTTTTTTATAAAATTTAAAATATA [CACACA_negctrl_site844] | 6.79
ACCTCACAAATGAATACACACAAACATATATATTTA [CACACA_site4976] | 7.43
TATTTTATTATACCAAGTACAAAATTTAAATATGAA [XGTACX_site5478] | 7.1
TATAAGAGAATATATACACACAAAAATAAATACAGT [CACACA_site5000] | 7.49
ATTTTATGTTGAAAGTGTACGTATTAATATGTAGAA [XGTACX_site245] | 7.34
TTTATTTTCATATGAACACACATATTTATATTATAA [CACACA_site7165] | 7.04
ATACATACATATATATGTACTTATATTTTACACATT [XGTACX_site1688] | 7.28
TACAATCTAAGGAGCACACAAAAATGGATAAATATA [CACACA_site933] | 7
TAATAAAAGAAAAAAAGTACAGACATATTGAATTTT [XGTACX_site5044] | 6.97
GCTTGAATAATCAATAGTACACACATATAAATATAT [XGTACX_site5964] | 7.08
AACACAAGAACAGAACGTACACACACATATATATAT [XGTACX_site7347] | 7.23
AGGTGTGAGACCACGTTCACAAAATAAAATACATAA [CACACA_negctrl_site326] | 6.9
TTTTTTTTTTTTTTTTGTACTCATACATACTATCAT [XGTACX_site3650] | 7.18
CAGGCACTAATAAACACACACATATAAATATAAATA [CACACA_site6320] | 6.99
ACATCAAGCAGACACACACACACACCCACCCACCCA [CACACA_site8012] | 7.32
AATTTCTACTATTGTATGCACTTTCATACATACATA [GTGCAC_site9924] | 7.52
ATAATAAAAAATACAAGTACACATATTATATATATA [XGTACX_site5355] | 8.09
AATGCTATCATTAATGCACACATTTAAAATTAATAT [CACACA_site3548] | 7.18

— the supplement of paper PMC11417369
